Measured values reported in the supplement of paper PMC3334620.
In all, about 33,000 sequences were measured (“E-score (-0.5 to 0.5)”: median about -0.035, highest 2% from about 0.35 on). The list shows a part of the results.

The sequences below were run against T1, Pdr3 (UniProt P33200) (assay: PBM E-score (8-mer binding enrichment) (E-score (-0.5 to 0.5)); higher = stronger / more preferred TF binding; most listed sequences are background and not binding sites). Settings: protein concentration: 200 nM; construct: GST-full length.
T1 sequence: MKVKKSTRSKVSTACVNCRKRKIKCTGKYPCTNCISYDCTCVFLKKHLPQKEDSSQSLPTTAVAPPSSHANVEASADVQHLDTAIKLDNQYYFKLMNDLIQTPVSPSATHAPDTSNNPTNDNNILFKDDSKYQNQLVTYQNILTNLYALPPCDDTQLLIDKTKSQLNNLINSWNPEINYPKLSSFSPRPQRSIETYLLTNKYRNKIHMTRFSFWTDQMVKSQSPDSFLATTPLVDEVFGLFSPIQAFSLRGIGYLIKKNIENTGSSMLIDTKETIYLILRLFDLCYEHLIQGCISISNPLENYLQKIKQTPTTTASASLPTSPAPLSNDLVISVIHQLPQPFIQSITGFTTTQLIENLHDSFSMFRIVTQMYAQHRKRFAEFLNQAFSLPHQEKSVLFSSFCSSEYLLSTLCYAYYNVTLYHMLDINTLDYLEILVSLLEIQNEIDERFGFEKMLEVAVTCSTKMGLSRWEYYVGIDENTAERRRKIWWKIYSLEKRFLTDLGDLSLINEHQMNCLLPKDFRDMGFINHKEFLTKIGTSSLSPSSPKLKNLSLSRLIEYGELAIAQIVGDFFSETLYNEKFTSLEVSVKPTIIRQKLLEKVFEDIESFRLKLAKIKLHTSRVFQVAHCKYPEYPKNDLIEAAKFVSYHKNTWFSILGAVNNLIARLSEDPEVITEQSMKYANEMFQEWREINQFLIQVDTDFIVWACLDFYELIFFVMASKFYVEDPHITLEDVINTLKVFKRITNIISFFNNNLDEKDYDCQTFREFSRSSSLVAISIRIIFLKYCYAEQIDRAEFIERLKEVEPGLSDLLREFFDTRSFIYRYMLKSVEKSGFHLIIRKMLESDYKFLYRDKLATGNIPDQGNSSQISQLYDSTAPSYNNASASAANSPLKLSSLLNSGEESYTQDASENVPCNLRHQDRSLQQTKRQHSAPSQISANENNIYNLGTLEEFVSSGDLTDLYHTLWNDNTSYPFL
Description: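 Universal 'all 10-mer' protein binding microarrays (Agilent AMADID 015681) probed with GST-tagged S. cerevisiae TFs (full-length or DBD) made by in vitro transcription/translation (PURExpress), about 100-200 nM. Bound TF was detected with fluorescent anti-GST. Each ungapped 8-mer (which stands for itself and its reverse complement) is scored by the PBM enrichment score (E-score), a modified Wilcoxon-Mann-Whitney statistic from -0.5 to +0.5, computed with the Universal PBM Analysis Suite. Scale: above 0.35 generally sequence-specific binding.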

Sequence	PBM E-score
GGGAGCAC	0.0715
ACGGTACA	0.00523
AATGGTCG	0.0034
AAGGGGGT	-0.405
CAGTCCTC	-0.258
ATCCCGTC	0.311
CAAGCCGC	0.0406
ATTGCATG	0.0911
GCTTTGTA	-0.118
CCCTGCCC	-0.232
AGTAAATG	0.00726
AACGATCC	-0.0296
ACTTTGAG	-0.207
GACGGCCA	0.00016
ATAAAGAG	-0.245
AAACGTGT	-0.0729
CACTGATG	-0.206
GCGCCGTA	0.251
TCATGAGA	-0.22
CAAAGGAG	-0.0645
CATGACGA	0.0365
ATGAACAC	-0.0256
GCAAAGAA	0.0386
AAAAATTT	0.084
ACGAAAAT	0.0123

Sequence	PBM E-score
CACAGCCC	-0.185
GTGAAGGA	-0.244
CAAACCGA	-0.0979
ACGTATGG	-0.234
ACTTCAAG	-0.0838
ACTGTCTA	-0.168
GCTTCGCA	-0.184
AACAGGGG	-0.0489
AGGGCAAG	0.0269
ATACGATG	0.0566
GAGCGAGC	0.118
AGCCCGAT	0.0109
TGTCCCAA	-0.0742
ATCGTGGG	0.0931
ATAGTCTG	-0.136
CGTATCTC	0.00754
AGAGGCCA	-0.108
GACTCCTC	-0.0434
AGTGCGAG	-0.16
TCGTCTAA	-0.134
CCGGGATC	0.453
ACCAGAGG	-0.211
ACAATAGG	-0.235
AATAAAGA	0.0161
AATGCATA	-0.129

Sequence	PBM E-score
AGCGGTAA	0.045
ATAGGCAC	-0.12
AGTTAGCA	0.024
ACTATACG	-0.0219
TCTCCAGA	-0.108
AAGAGTGA	-0.204
AGAACACT	0.0463
GCGTCATA	0.0182
CTACCAAA	-0.0873
ACCTGTGC	-0.15
GGTTGCTA	-0.0371
CGAGTGAG	0.013
GTCTTCGA	-0.198
GACTGGGA	0.0484
ATAGCGAG	-0.0297
GACAGGGC	0.00102
CTCCCAAC	-0.195
ACTCAGCA	0.00842
CTCGTCGC	-0.12
AGGTCAAA	-0.235
GGTCAGAA	-0.0505
CCGGAAAC	0.447
GGAATTAA	0.212
CATACAAG	-0.174
CCATGAGC	-0.108

Sequence	PBM E-score
CTCCGAAC	0.278
ATGTGTTG	0.0321
ACTCTCAG	-0.24
ACCCTGCT	-0.22
CGTCGACA	0.023
GACAAGCC	0.0478
GAGTCGAC	0.0255
AGAAAGTC	-0.104
ATAAATCG	0.118
ACATAGTC	-0.0637
AGGCTTGG	-0.0735
AACCCGCA	0.18
ATATCCCA	0.229
CAGTTGTA	-0.0224
CGTCAATC	0.018
AGAAGTAG	-0.231
ATTTTGGC	0.16
ACTGGTTA	-0.0976
ACTTTAAC	-0.197
ACAGGCCA	0.0519
CTTTCCTA	-0.19
AGGTTGGA	0.0423
ATCGTGTG	-0.0855
CTGTTGAA	0.11
TACCCCGA	0.206

Sequence	PBM E-score
GTACAAAA	-0.131
ACTCAAGG	-0.062
ATTTCACC	-0.0751
CAACGTTC	0.144
AGGCGACG	-0.0284
GGGGACCC	0.0311
AATCTCCT	-0.00705
CCCGTGAC	0.157
GTCGGATA	0.218
ACTATATC	-0.0346
CATAGCTA	-0.151
ATGGAGAG	-0.295
CGAGGCCA	-0.00131
ACAAGGGC	-0.161
AGTGTAAG	-0.148
CCCTAAGG	-0.18
AGCGGAGA	0.232
TCAGTCAA	-0.0311
GATTGCGC	0.218
CAGGGCGC	0.102
GGCGACAA	0.0621
ACAGCCAA	-0.0813
GCTCTACA	0.00648
AGTACTAC	-0.105
AGAGAAGC	-0.00959

Sequence	PBM E-score
GGCTGGCA	-0.313
AAAATCAG	0.0337
CAAGGTAA	0.0413
ATGGATTG	0.0851
CTCTTATC	0.105
CTTATCAA	-0.0642
GATTTTAA	0.064
ACAACAGG	-0.164
CTAAAAAA	0.0809
ATGAGTGC	-0.0172
ATGCAAAT	0.0149
AACCATCA	-0.067
ATTCATAC	0.174
ACCGACCA	0.00667
ATCAAGGA	-0.112
AAAGATCA	-0.0548
ACACCTAC	-0.00559
ATGTAAAA	-0.168
CCTTTCCC	0.235
ACCGTCTC	-0.0695
CCGTTGAC	0.0583
ATATTCAT	-0.0582
CATACCGG	0.189
CCATCTCG	0.102
CTGGTGTA	-0.172

Sequence	PBM E-score
ACGATTGG	-0.0144
AGCGGTTA	-0.121
AGGGAGCG	-0.0856
ATGCCTTC	-0.222
CACCGGAA	0.46
CCATGTGA	-0.17
AAATTAGA	-0.0404
CTCGTTGA	-0.233
TCCAATCA	0.0101
ATTGACAG	-0.115
GAAAGTCC	-0.00556
GAATTCAC	0.0392
GTATCCAA	-0.0553
ATCCTCAA	-0.139
GCAATCGA	-0.0276
ATTACGCG	0.119
ACGTCATG	-0.124
ACCAGCGA	0.11
CGGGTAAC	0.267
CAGCCGCA	-0.0661
ACCTTTGA	-0.189
GGGAAGAC	-0.0964
